Data on 42 compounds can be found in ChEMBL document CHEMBL4888484, “Replenishing the malaria drug discovery pipeline: Screening and hit evaluation of the MMV Hit Generation Library 1 (HGL1) against asexual blood stage Plasmodium falciparum ,using a nano luciferase reporter read-out” (2022).

Each structure is given as a SMILES string. The campaign covered roughly 150,000 compounds. About 540 (0.36%) showed an effect of 50% or more. This is one part of the list.

This assay concerns Plasmodium falciparum. As to the kind of experiment: Primary screen in NF54 nanoGlo assay, in single point, at 2uM, 72h; a lower Z score goes with more inhibition. The assay is classed as functional, Erythrocyte. As to conditions: timepoint 72 hour.
As to `COC1CCC(C(=O)NS(=O)(=O)c2cc(F)c(Br)cc2C)C1` (centres undefined), the % Inhibition – broadly, the relative decrease from the control value, in per cent – was -3% and the Z score is given as 0.43.
For `COc1cccc(CNC(=O)Cn2nc3ccc(C(=O)NCc4ccccc4)cn3c2=O)c1` the same measures were -10% and 1.76.
Consider `Cc1nc(C)c(C(=O)NC[C@H]2CCCN(Cc3cccc4nonc34)C2)s1`, for which the “% Inhibition” value was -12% and the Z score worked out at 2.17.
For `Cc1cccn2c(=O)c(C(=O)NCc3cocn3)cnc12` the same measures were -12% and 1.47.
`CCN(CCNC(=O)OC(C)(C)C)C1CC1`: the “% Inhibition” value is on record as 3% and the Z score was -0.41.
For `CCc1cnccc1C(=O)N(CC1CCCCC1)c1ccccn1` the same measures were -12% and 1.63.
For `CCOc1ccccc1NC(=O)Cn1nc2c(N(C)C)nc3ccccc3n2c1=O` the same measures were -13% and 1.8.
For `C=CCN1CC[C@@]2(CCC1=O)CN(c1cc(C#N)ccn1)CCN2C` the same measures were -15% and 2.08.
On to `Cn1nccc1NC(=O)[C@@H]1NCCOc2ccccc21`, for which the “% Inhibition” value is -3% and the Z score is on record as 0.42.
For `CC[C@H]1CCCN(C(C)(C)CNS(=O)(=O)CC2CCOCC2)C1` the same measures were -5% and 0.58.
For `N#Cc1ccc(N[C@H]2CCN(C(=O)c3ccccc3)C[C@@H]2O)nc1` the same measures were 3% and -0.27.
For `Cc1ccc([C@H](C)N(C)c2nc(C)cc(C#N)n2)c(C)c1` the same measures were -2% and 0.25.
Turning to `Cn1cc(C(=O)N(CCc2cccs2)C2CCOCC2)nn1`, the “% Inhibition” value is recorded as -1% and the Z score came to 0.1.
For `C=CCC[C@@H](CN1CCOCC1)Oc1cc(C)nc(-c2ccccc2)n1` the same measures were -8% and 1.34.
On to `COC(CNC(=O)C1(C)CC2CCC1C2)OC` (centres undefined), for which the “% Inhibition” value came to 21% and the Z score is -2.66.
As to `Cc1ccncc1CNC(=O)N1CC(F)C1`, the “% Inhibition” value came to 1% and the Z score is -0.14.
For `Cc1n[nH]c(C)c1-c1cc(C)c2nccn2c1` the same measures were 1% and -0.14.
For `CN(C)[C@@H](CNC(=O)C(C)(C)O)c1cccc(C(F)(F)F)c1` the same measures were -7% and 1.33.
Regarding `COc1ccccc1NS(=O)(=O)c1cc(-c2n[nH]c(=O)c3c2CCCC3)ccc1OC`, the “% Inhibition” value is -10% and the Z score was 1.22.
For `COc1cc(NC(=O)N2CCC(C)=C(C)C2)ccn1` the same measures were -15% and 1.51.
For `Cc1cccc(-c2ncc(C(=O)N[C@@H](C)c3ccccc3)c(N(C)C(C)C)n2)c1` the same measures were 3% and -0.57.
For `C[C@@H](c1ccccc1)N(c1ccccc1)S(=O)(=O)c1cnc2c(c1)c(=O)[nH]c(=O)n2C` the same measures were -7% and 0.95.
For `Cc1ccc(N2N=C(C(=O)NCc3ccc(F)cc3)S(=O)(=O)c3cccnc32)cc1`, the “% Inhibition” value is 8% and the Z score is listed as -1.01.
For `Cc1nn(C)c(C)c1S(=O)(=O)NC1(C(F)(F)F)CCC1` the same measures were -10% and 1.1.
In the case of `CC(CC(O)c1cccs1)NCc1cccn1C` (centres undefined), the “% Inhibition” value is listed as -2% and the Z score is recorded as 0.18.
For `CC[C@](O)(CNC(=O)CCOC)c1ccc(Br)cc1` the same measures were -2% and 0.22.
For `Cc1cc(CNC2CCC(C)(NC(=O)OC(C)(C)C)CC2)ccn1` (centres undefined) the same measures were -4% and 0.84.
For `COc1ccc2cc(C(=O)N[C@H]3COCC[C@@H]3OC)sc2c1` the same measures were -5% and 0.68.
With `O=c1ccc2cc(Cl)cnc2n1Cc1cc(C2CC2)no1`, the “% Inhibition” value was -11% and the Z score is 1.57.
For `Cc1ccc(NC(=O)c2ccc3c(=O)n(-c4cccc(C)c4)c(N4CCCC4)nc3c2)cc1` the same measures were 7% and -1.25.
For `N#CCN(C(=O)c1coc(CC2CC2)n1)C1CCCC1` the same measures were 0% and -0.03.
For `CC(=O)O[C@@H]1CC(C)N(C(C)=O)c2ccc(C)cc21` (some centres undefined) the same measures were -14% and 1.6.
In the case of `Cc1ccc(C)c(Nc2nc(N3CCN(Cc4ccccc4)CC3)nc3nccnc23)c1`, the “% Inhibition” value is -12% and the Z score amounted to 1.4.
Consider `O=C(NCC1CCCCC1O)c1cccc(-c2nnco2)c1` (centres undefined), for which the “% Inhibition” value is listed as -16% and the Z score amounted to 1.61.
Regarding `CC(C)NC(=O)Cc1cccc(N(Cc2ccc(F)cc2)C(=O)NC(C)C)c1`, the “% Inhibition” value is given as -13% and the Z score is 1.21.
For `Cc1cc(C(=O)N[C@H]2CC[C@H](Oc3ccccn3)CC2)c(C)o1` the same measures were -12% and 1.41.
`Cc1cc(C)c(C(=O)CC2(C(F)(F)C(F)F)NCCN2)c(=O)[nH]1`: the “% Inhibition” value was 9% and the Z score is reported as -1.17.
For `Cc1csc(-c2noc(Cn3ncn(C)c3=O)n2)n1` the same measures were -6% and 0.81.
For `CCC(=O)N1CC[C@@]2(CCCN(Cc3cccc(F)c3F)C2=O)C1` the same measures were -14% and 2.15.
For `CC(C)N1CCN2C(=O)c3ccccc3OCC[C@@H]3CC[C@@H](NS(C)(=O)=O)[C@@H](CNC(=O)[C@@H]2C1)O3` the same measures were -12% and 1.5.
With `COc1cccc(C(=O)Nc2ccc(N3CCN(C(=O)C4CCCC4)CC3)c(C(=O)N(C)Cc3ccccc3)c2)c1`, the “% Inhibition” value is on record as 19% and the Z score was -2.38.
`O=C(NCC1COCCO1)c1cn(CC(O)c2cccs2)nn1` (centres undefined): the “% Inhibition” value was determined as 4% and the Z score was -0.72.
